# According to PubChem BioAssay AID2451 (National Center for Advancing Translational Sciences (NCATS), 2010):
# The whole screen tested about 290,000 compounds, of which about 2,100 (0.72%) were called active. This list was built around the results that the source calls inconclusive (neither active nor inactive); the mix of calls is not that of the screen. The call rests on the fitted dose curve; in most records, active means well fitted inhibition curve with a large enough effect; inconclusive means small, poorly fitted or top-dose-only effect, or effect the other way; inactive means flat fitted curve, though single readings scatter. Potencies beside an inconclusive call are fits to weak or partial responses and may not hold up.
# Biological target: Fructose-bisphosphate aldolase (Giardia intestinalis (strain ATCC 50803 / WB clone C6)) (UniProt A8B2U2)
# Chain of UniProt A8B2U2 (A8B2U2 whole entry, looked up): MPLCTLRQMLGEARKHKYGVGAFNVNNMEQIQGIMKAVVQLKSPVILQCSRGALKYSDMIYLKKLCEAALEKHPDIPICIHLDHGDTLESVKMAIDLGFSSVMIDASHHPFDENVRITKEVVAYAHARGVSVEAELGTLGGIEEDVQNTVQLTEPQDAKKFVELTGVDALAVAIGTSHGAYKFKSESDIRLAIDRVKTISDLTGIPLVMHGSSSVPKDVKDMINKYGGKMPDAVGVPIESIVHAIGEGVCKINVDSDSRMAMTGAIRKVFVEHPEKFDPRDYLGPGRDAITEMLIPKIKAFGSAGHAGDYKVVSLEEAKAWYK
# Assay: qHTS Assay for Inhibitors of Fructose-1,6-bisphosphate Aldolase from Giardia Lamblia; further: nearly all actives have a fitted effect of over 55% in size
# Details: purified Giardia FBPA; activity, negative = inhibition: at 59.6 µM (top of the series) unless noted
# Summary of the method: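 40 nM FBPA preincubated 10 min at RT with compound (up to 57.5 uM final), then substrate plus GAPDH/TPI/NAD/arsenate coupling and diaphorase/resazurin added. Fluorescence read after 20 min at RT, 525/598 nm.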
# On the % scale 0 is the no-effect control and ±100 the full control effect; potency means the concentration at half of the fitted maximal effect; tags describe the fitted curve by direction and shape.
Compound,Potency,"activity, negative = inhibition"
O=C(O)CC1S/C(=N/N=C/c2ccccn2)NC1=O (stereo not given),active: 17.7 µM,–
COc1ccc(CN2CCCC(C(=O)N3CCCCC3)C2)c(OC)c1 (stereo not given),"inconclusive: 7.08 µM [inhibitor, partial curve]",–
COc1cccc(Nc2nc(NCCO)c3ccccc3n2)c1,–,inactive: -18%
CCn1nc2cc(C(=O)NCC34CC5CC(CC(C5)C3)C4)ccc2c1OC,–,inactive: -0.903%
Cc1ccc(C)c(N2C(=O)CN=C2Nc2ccccc2Cl)c1,"inconclusive: 17.7 µM [inhibitor, single point]",–
S=c1[nH]nc(-c2ccccn2)n1/N=C/c1ccco1,active: 19.9 µM,–
Cc1ccc(C(=O)Nc2ccc(S(=O)(=O)N3CCCC3)cc2)s1,–,inactive: -17.4%
CC(C)(S)[C@@H](N)C(=O)O,active: 12.6 µM,–
CCc1nnc(NC(=O)CN2CCN(Cc3cccc(OC)c3)CC2)s1,active: 3.16 µM,–
NS(=O)(=O)c1ccc(NC(=S)NCCc2ccccc2)cc1,"inconclusive: 19.9 µM [inhibitor, single point]",–
CC(CNCC1CCCO1)COc1cccc2ccccc12 (stereo not given),"inconclusive: 25.1 µM [inhibitor, single point]",–
Cc1ccc2nc(-c3ccc(O)c(O)c3)cn2c1,"inconclusive: 28.2 µM [inhibitor, single point]",–
COC(=O)C/C=C\[C@@H](C)[C@@H]1C=C[C@H](OC(C)=O)[C@H](COC(C)=O)O1,–,inactive: 1.04% [at 12.9 µM]
O=C(c1cc2ccccc2o1)N(C1CC1)C1(C(=O)Nc2ccccc2)CCCC1,–,inactive: -0.0862%
N#Cc1ccc(Cl)cc1NC(=O)CNCc1cccs1,active: 15.8 µM,–
O=C(NC(=S)Nc1ccccc1[N+](=O)[O-])c1ccco1,active: 15.8 µM,–
CCOC(=O)C1=C(O)/C(=C/c2cc(C)n(-c3ccccc3)c2C)N=C1C,"inconclusive: 19.9 µM [inhibitor, partial curve]",–
Cn1nnnc1NC(=O)c1ccccc1Cl,"inconclusive: 20 µM [inhibitor, partial curve]",–
CCOc1ccc(NC2CCN(C(C)=O)CC2)cc1,"inconclusive: 15.8 µM [inhibitor, partial curve]",–
Cc1[nH]n(-c2ccccc2)c(=O)c1/C=N/N1C(=O)c2ccc3c4c(ccc(c24)C1=O)CC3,"inconclusive: 35.4 µM [activator, single point]",–
COc1cccc(C(=O)NC(=S)Nc2ccc3oc(=O)ccc3c2)c1,"inconclusive: 9.98 µM [inhibitor, partial curve]",–
O=C(NCc1ccccc1)Nc1cccn(Cc2ccc(Cl)cc2)c1=O,–,inactive: -9.16%
O=C(c1ccc(-c2ccc(Cl)cc2Cl)o1)N1CCOCC1,–,inactive: 2.67%
Nc1ccc2oc(CCc3ccccc3)nc2c1,"inconclusive: 44.6 µM [inhibitor, single point]",–
CN1CC(CO)=C[C@H]2c3cccc4[nH]cc(c34)C[C@H]21,"inconclusive: 7.06 µM [inhibitor, partial curve]",–

Compound,Potency,"activity, negative = inhibition"
O=C(O)C(Cc1cnc[nH]1)NS(=O)(=O)c1ccc(Br)cc1 (stereo not given),"inconclusive: 17.8 µM [inhibitor, partial curve]",–
O=C1NC(=O)N(Cc2ccccc2F)C1=O,"inconclusive: 25.1 µM [inhibitor, partial curve]",–
CN(NC1OC(=O)c2ccccc21)c1ccc(Cl)cc1[N+](=O)[O-] (stereo not given),"inconclusive: 17.7 µM [activator, single point]",–
O=c1cc(-c2ccc(O)c(O)c2)oc2cc(O)c(C3OC(CO)C(O)C(O)C3O)c(O)c12 (stereo not given),"inconclusive: 22.3 µM [inhibitor, partial curve]",–
Cc1ccc(OCCn2c(NC(=O)c3ccco3)nc3ccccc32)cc1,"inconclusive: 19.9 µM [activator, partial curve]",–
COc1ccc(C(=O)Nc2cc(OC)cc(OC)c2)cc1,–,inactive: -14.5%
O=C(Nc1ccc(N2CCCC2)c(Cl)c1)c1ccc([N+](=O)[O-])o1,"inconclusive: 15.8 µM [inhibitor, single point]",–
COc1ccc(CCn2c(N)c(C#N)c3nc4ccccc4nc32)cc1OC,"inconclusive: 19.9 µM [inhibitor, partial curve]",–
COc1ccc(C2CC(c3cccs3)=NN2c2nc(C)c(C(C)=O)s2)cc1OC (stereo not given),"inconclusive: 17.7 µM [inhibitor, single point]",–
CC1OC(Oc2c(-c3cc(O)c(O)c(O)c3)oc3cc(O)cc(O)c3c2=O)C(O)C(O)C1O (stereo not given),active: 9.98 µM,–
CCOc1cc(/C=C(\C#N)C(=O)Nc2ccccn2)ccc1O,"inconclusive: 25.1 µM [inhibitor, single point]",–
O=C(CN1CCN(CCO)CC1)Nc1ccccc1,"inconclusive: 35.4 µM [inhibitor, single point]",–
O=C(O)c1cccc2c1C(=O)N(Cc1ccccc1)C2,"inconclusive: 39.8 µM [activator, single point]",–
CCCCC1OC23CCCCC2C(C#N)(C#N)C1(C#N)C(=N)O3 (stereo not given),"inconclusive: 22.3 µM [inhibitor, partial curve]",–
CCn1nc(NC(=O)c2ccncc2)c2cc3cccc(C)c3nc21,–,inactive: 4.64%
N#C/C(=C\c1ccc(O)c(O)c1)C(N)=O,"inconclusive: 25.1 µM [inhibitor, partial curve]",–
CC1=NN(c2ccc(S(=O)(=O)O)cc2Cl)C(=O)C1,"inconclusive: 15.8 µM [inhibitor, partial curve]",–
CNC(=O)OCc1cccc(COC(=O)NC)n1,–,inconclusive: 38.2% [activator]
Cc1ccc(C=Nc2ccc(N(C)C)cc2)o1,"inconclusive: 15.8 µM [inhibitor, partial curve]",–
Cc1ccc(NCc2ccncc2)c(Br)c1,"inconclusive: 44.6 µM [inhibitor, single point]",–
CCc1nc(C)cc(N)c1OCc1ccccc1,"inconclusive: 15.8 µM [inhibitor, single point]",–
Brc1ccccc1OCCCN1CCCCCC1,"inconclusive: 19.9 µM [inhibitor, partial curve]",–
O=C(c1ccncc1)N1CCN(C2CCCCC2)CC1,"inconclusive: 15.8 µM [inhibitor, partial curve]",–
O=C(C1CCCN(Cc2ccc(Cl)cc2)C1)N1CCCCC1 (stereo not given),"inconclusive: 15.8 µM [inhibitor, partial curve]",–
O=C(/C=C/Nc1ccccc1F)c1ccc(Br)cc1,–,inactive: 3.93%

Compound,Potency,"activity, negative = inhibition"
COc1ccccc1Nc1nc2nonc2[nH]c1=O,"inconclusive: 15.8 µM [inhibitor, partial curve]",–
Cc1nn(C)cc1C1C(C#N)=C(N)N(c2ccc(F)c([N+](=O)[O-])c2)C2=C1C(=O)CCC2 (stereo not given),"inconclusive: 22.3 µM [inhibitor, partial curve]",–
O=C(NCCO)c1cc(-c2cc(C(=O)NCCO)c3ccccc3n2)nc2ccccc12,"inconclusive: 12.6 µM [inhibitor, partial curve, poor fit]",–
COc1cccc(CNn2c(-c3cccc(C)c3)nc3ccccc3c2=O)c1,–,inactive: -5.85%
COc1ccc(CN2CCN(C(=O)c3ccc(F)cc3)CC2)c(OC)c1,"inconclusive: 28.2 µM [inhibitor, partial curve, poor fit]",–
CC(C)c1ccc(C2NC(=O)c3ccccc3O2)cc1 (stereo not given),–,inactive: 6.42%
CCOC(=O)Cc1csc(NC(=S)NC(=O)c2ccc([N+](=O)[O-])cc2)n1,"inconclusive: 1.12 µM [inhibitor, full curve]",–
COCCN(C)Cc1cn(-c2ccc(F)cc2F)nc1-c1ccccc1C,"inconclusive: 22.3 µM [inhibitor, single point]",–
CCn1c(SCC(=O)c2cc(OC)ccc2OC)nnc1C1CC1,"inconclusive: 20 µM [inhibitor, partial curve]",–
NC(=S)N/N=C/c1cn(CCC(=O)O)nc1-c1cccc(Br)c1,"inconclusive: 19.9 µM [inhibitor, partial curve]",–
CCCn1c(CNc2ccccc2O)nc2ccccc21,"inconclusive: 15.8 µM [inhibitor, single point]",–
COc1ccc(CNC(=O)[C@H](C)NC(=O)C2CCN(C(=O)[C@@H](N)Cc3ccccc3)CC2)cc1,"inconclusive: 12.6 µM [inhibitor, partial curve]",–
Oc1ccccc1-c1nc(/C=C/c2ccccc2)nn1-c1ccccc1,–,inactive: -6.99%
O=C(NCc1cccs1)c1csc2c1CCCCC2,–,inactive: 2.8%
CCN(CC)CCn1c(NCc2ccccn2)nc2ccccc21,"inconclusive: 14.1 µM [inhibitor, partial curve]",–
CCc1ccc(CC(=S)N2CCOCC2)cc1,–,inactive: 5.13%
O=C(COC(=O)c1ccccc1Nc1ccccc1)NCc1ccco1,–,inactive: 0.195%
CC(=O)NCCc1c[nH]c2ccc(O)cc12,"inconclusive: 4.46 µM [inhibitor, partial curve]",–
CCOc1cc(CN2CCN(c3cccc(C(F)(F)F)c3)CC2)ccc1O,"inconclusive: 12.6 µM [inhibitor, partial curve]",–
Cc1cc(C(=O)C(=O)O)c(C)n1-c1ccc(Cl)cc1,"inconclusive: 8.89 µM [activator, partial curve]",–
CCOc1cc(CNCCCN2CCOCC2)ccc1OCC(=O)Nc1cccc2ccccc12,–,inactive: -1.01%
COc1ccc(C(C)NC(=O)c2ccccc2)cc1 (stereo not given),–,inactive: -0.156%
O=c1ccc2ccc(O)c(O)c2o1,active: 9.98 µM,–
COc1ccc(OCCCC(=O)Nc2ccc(N3CCCCC3)cc2)cc1,"inconclusive: 14.1 µM [inhibitor, partial curve]",–
O=C1C=CC(=O)C(C2=C3C(=O)N(CCc4ccccc4)CC(=O)N3CCC2)=C1,active: 17.7 µM,–
